# In the supplement of paper PMC8728848:
# The other results are listed elsewhere or left out.
# How the values were obtained:
# Assay in all cases: glycan array binding signal (z-score within array); higher = stronger binding
# Settings in all cases: glycan notation: IUPAC condensed, linker removed
# [1] = target: Fuc(a1-3)[Gal3S(b1-4)]GlcNAc6S
# Outline: (§1)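 Glycan array binding is given as a within-array Z-score, which can be read as non-binding when negative. The arrays, 3228 of them, came from the Consortium for Functional Glycomics database and were retained only where the protein sequence was available. Z-scores were averaged across arrays of the same protein sequence at different concentrations or buffers and across linkers.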
# [2] = target: Fuc(a1-3)[GalNAc(b1-4)]GlcNAc
# Outline: as §1
# [3] = target: Fuc(a1-3)[GalNAc(b1-4)]GlcNAc6S
# Outline: as §1
# Fuc(a1-4)GlcNAc = target: Fuc(a1-4)GlcNAc
# Outline: as §1
# Fuc(b1-3)GlcNAc = target: Fuc(b1-3)GlcNAc
# Outline: as §1
# Gal(a1-2)Gal = target: Gal(a1-2)Gal
# Outline: as §1
# Gal(a1-3)Gal = target: Gal(a1-3)Gal
# Outline: as §1
# Gal(a1-3)Gal(b1-3)GlcNAc = target: Gal(a1-3)Gal(b1-3)GlcNAc
# Outline: as §1
# [4] = target: Gal(a1-3)Gal(b1-3)GlcNAc(b1-2)Man
# Outline: as §1
# [5] = target: Gal(a1-3)Gal(b1-3)GlcNAc(b1-2)Man(a1-3)[Gal(a1-3)Gal(b1-3)GlcNAc(b1-2)Man(a1-6)]Man(b1-4)GlcNAc(b1-4)GlcNAc
# Outline: as §1
# [6] = target: Gal(a1-3)Gal(b1-3)GlcNAc(b1-3)GalNAc
# Outline: as §1
# [7] = target: Gal(a1-3)Gal(b1-3)GlcNAc(b1-6)GalNAc
# Outline: as §1
# [8] = target: Gal(a1-3)Gal(b1-3)[Fuc(a1-4)]GlcNAc(b1-2)Man(a1-3)[Gal(a1-3)Gal(b1-3)[Fuc(a1-4)]GlcNAc(b1-2)Man(a1-6)]Man(b1-4)GlcNAc(b1-4)GlcNAc
# Outline: as §1
# Gal(a1-3)Gal(b1-4)Glc = target: Gal(a1-3)Gal(b1-4)Glc
# Outline: as §1
# Gal(a1-3)Gal(b1-4)GlcNAc = target: Gal(a1-3)Gal(b1-4)GlcNAc
# Outline: as §1
# [9] = target: Gal(a1-3)Gal(b1-4)GlcNAc(b1-2)Man
# Outline: as §1
# [10] = target: Gal(a1-3)Gal(b1-4)GlcNAc(b1-2)Man(a1-3)[Gal(a1-3)Gal(b1-4)GlcNAc(b1-2)Man(a1-6)]Man(b1-4)GlcNAc(b1-4)GlcNAc
# Outline: as §1
# [11] = target: Gal(a1-3)Gal(b1-4)GlcNAc(b1-3)GalNAc
# Outline: as §1
# [12] = target: Gal(a1-3)Gal(b1-4)GlcNAc(b1-6)GalNAc
# Outline: as §1
# [13] = target: Gal(a1-3)Gal(b1-4)[Fuc(a1-3)]GlcNAc
# Outline: as §1
# [14] = target: Gal(a1-3)Gal(b1-4)[Fuc(a1-3)]GlcNAc(b1-2)Man(a1-3)[Gal(a1-3)Gal(b1-4)[Fuc(a1-3)]GlcNAc(b1-2)Man(a1-6)]Man(b1-4)GlcNAc(b1-4)GlcNAc
# Outline: as §1
# Gal(a1-3)GalNAc = target: Gal(a1-3)GalNAc
# Outline: as §1
# [15] = target: Gal(a1-3)[Gal(a1-4)]Gal(b1-4)GlcNAc
# Outline: as §1
# [16] = target: Gal(a1-4)Gal(b1-3)GlcNAc(b1-2)Man(a1-3)[Gal(a1-4)Gal(b1-3)GlcNAc(b1-2)Man(a1-6)]Man(b1-4)GlcNAc(b1-4)GlcNAc
# Outline: as §1
# Gal(a1-4)Gal(b1-4)Glc = target: Gal(a1-4)Gal(b1-4)Glc
# Outline: as §1
# Gal(a1-4)Gal(b1-4)GlcNAc = target: Gal(a1-4)Gal(b1-4)GlcNAc
# Outline: as §1
# [17] = target: Gal(a1-4)Gal(b1-4)GlcNAc(b1-2)Man(a1-3)[Gal(a1-4)Gal(b1-4)GlcNAc(b1-2)Man(a1-6)]Man(b1-4)GlcNAc(b1-4)GlcNAc
# Outline: as §1
# [18] = target: Gal(a1-4)Gal(b1-4)GlcNAc(b1-3)Gal(b1-4)Glc
# Outline: as §1
# Gal(a1-4)GlcNAc = target: Gal(a1-4)GlcNAc
# Outline: as §1
# Gal(a1-6)Glc = target: Gal(a1-6)Glc
# Outline: as §1
# Gal(b1-2)Gal = target: Gal(b1-2)Gal
# Outline: as §1
# Gal(b1-3)Gal = target: Gal(b1-3)Gal
# Outline: as §1
# Gal(b1-3)Gal(b1-4)GlcNAc = target: Gal(b1-3)Gal(b1-4)GlcNAc
# Outline: as §1
# Gal(b1-3)GalNAc = target: Gal(b1-3)GalNAc
# Outline: as §1
# [19] = target: Gal(b1-3)GalNAc(a1-3)[Fuc(a1-2)]Gal(b1-4)Glc
# Outline: as §1
# [20] = target: Gal(b1-3)GalNAc(a1-3)[Fuc(a1-2)]Gal(b1-4)GlcNAc
# Outline: as §1
# Gal(b1-3)GalNAc(b1-3)Gal = target: Gal(b1-3)GalNAc(b1-3)Gal
# Outline: as §1
binder,measurement,setting,value
B1567 (Bifidobacterium sp) (protein) MKFTTAKKAVALTGAVAMLVSVAACGSDSGKSSQPAQDSDVKEITVWAWEPSLTQVAKDFEKETGIKVDLKNVGTNTKEYTQLDNAIEAGSGAPDVAQVEYYAVPQYAIKGNLLDITDKTSGYKDFYTPGPWASVQFAGKVYGLPMDSGPMAFFYNKEVFDKAGVDAEQIKTWDQYYDAAKKIHALGDNYYITSDTGDAGFFDSMTWLAGAKPFQTSSDGSEVTVNLTEDKGVKTFTDFWQKLLDEGLLDTKTAGWSEDWFKGMVDGTIASLFTGAWMPANLANSAADGAGKWRVTQMPTADGSTTNSENGGSSLAVLASTKKADAAYQFIEYANHGAGVATRVAGGAFPADKASLEKDSFKNATTVKNADGQDVDYFGGQKYNEVLAQAAENVSSGYQFLPFEVKARTIFGDYFGKSYTGDQKLSDGVAAWQKALQDYGKDQGFTVK,glycan array binding signal (z-score),[1],-0.033
same,glycan array binding signal (z-score),[2],-0.056
same,glycan array binding signal (z-score),[3],-0.043
same,glycan array binding signal (z-score),Fuc(a1-4)GlcNAc,-0.077
same,glycan array binding signal (z-score),Fuc(b1-3)GlcNAc,-0.089
same,glycan array binding signal (z-score),Gal(a1-2)Gal,-0.081
same,glycan array binding signal (z-score),Gal(a1-3)Gal,-0.104
same,glycan array binding signal (z-score),Gal(a1-3)Gal(b1-3)GlcNAc,-0.129
same,glycan array binding signal (z-score),[4],-0.077
same,glycan array binding signal (z-score),[5],0.046
same,glycan array binding signal (z-score),[6],-0.018
same,glycan array binding signal (z-score),[7],-0.124
same,glycan array binding signal (z-score),[8],0.007
same,glycan array binding signal (z-score),Gal(a1-3)Gal(b1-4)Glc,0.005
same,glycan array binding signal (z-score),Gal(a1-3)Gal(b1-4)GlcNAc,-0.086
same,glycan array binding signal (z-score),[9],-0.074
same,glycan array binding signal (z-score),[10],0.008
same,glycan array binding signal (z-score),[11],-0.115
same,glycan array binding signal (z-score),[12],-0.063
same,glycan array binding signal (z-score),[13],-0.122
same,glycan array binding signal (z-score),[14],0.069
same,glycan array binding signal (z-score),Gal(a1-3)GalNAc,-0.092
same,glycan array binding signal (z-score),[15],-0.111
same,glycan array binding signal (z-score),[16],-0.076
same,glycan array binding signal (z-score),Gal(a1-4)Gal(b1-4)Glc,-0.136
same,glycan array binding signal (z-score),Gal(a1-4)Gal(b1-4)GlcNAc,-0.084
same,glycan array binding signal (z-score),[17],0.067
same,glycan array binding signal (z-score),[18],-0.15
same,glycan array binding signal (z-score),Gal(a1-4)GlcNAc,-0.092
same,glycan array binding signal (z-score),Gal(a1-6)Glc,-0.044
same,glycan array binding signal (z-score),Gal(b1-2)Gal,-0.056
same,glycan array binding signal (z-score),Gal(b1-3)Gal,-0.133
same,glycan array binding signal (z-score),Gal(b1-3)Gal(b1-4)GlcNAc,-0.08
same,glycan array binding signal (z-score),Gal(b1-3)GalNAc,0.003
same,glycan array binding signal (z-score),[19],-0.013
same,glycan array binding signal (z-score),[20],-0.125
same,glycan array binding signal (z-score),Gal(b1-3)GalNAc(b1-3)Gal,-0.121
